Our source for the binding signal values is paper PMC4081100.

The list shows a part of the results, in another mix than the full data. For some of these results: At the low end of the ranking, values are background and their order means little. The list shows a part of the results. For some of these results: Construct or isoform of the protein are uncertain.

Common to all, as to assay: universal protein binding microarray (PBM)
Holding throughout (details): transcription factors of Arabidopsis thaliana; high values mean tight binding; most listed sequences are background and not binding sites; double strand, one strand shown

One experiment concerns the target T1, GST-ANAC092(1-176) (UniProt Q9FKA0).
T1 sequence: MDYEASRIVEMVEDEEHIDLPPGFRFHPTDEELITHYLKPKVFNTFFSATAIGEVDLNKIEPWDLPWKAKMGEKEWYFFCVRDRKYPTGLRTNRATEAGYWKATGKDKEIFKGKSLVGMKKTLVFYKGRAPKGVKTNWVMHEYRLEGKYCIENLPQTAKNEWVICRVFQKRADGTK

In the next experiment the target is GST-NTL6(1-168) (UniProt Q9SCK6).
Another experiment addresses T2, GST-ANAC019 NAC domain (UniProt Q9C932).
T2 sequence: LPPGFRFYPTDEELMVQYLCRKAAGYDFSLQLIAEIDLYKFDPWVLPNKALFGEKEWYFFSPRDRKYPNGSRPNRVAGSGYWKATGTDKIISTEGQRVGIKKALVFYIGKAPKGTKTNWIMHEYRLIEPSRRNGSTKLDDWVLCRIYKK

In another experiment the target is T3, GST-ANAC055(1-171) (UniProt Q9LDY8).
T3 sequence: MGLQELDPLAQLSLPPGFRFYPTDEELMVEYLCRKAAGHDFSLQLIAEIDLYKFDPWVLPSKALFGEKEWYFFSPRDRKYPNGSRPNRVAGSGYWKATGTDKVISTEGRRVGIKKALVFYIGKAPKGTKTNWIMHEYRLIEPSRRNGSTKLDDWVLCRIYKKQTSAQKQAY

The next experiment addresses T4, GST-ATAF1 NAC domain (UniProt Q39013).
T4 sequence: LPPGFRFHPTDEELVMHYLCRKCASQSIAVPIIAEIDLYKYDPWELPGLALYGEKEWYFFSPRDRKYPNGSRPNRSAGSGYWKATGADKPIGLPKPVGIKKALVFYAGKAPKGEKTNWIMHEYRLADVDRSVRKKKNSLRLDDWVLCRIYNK

Another experiment deals with T5, GST-NST2(1-184) (UniProt Q9M274).
T5 sequence: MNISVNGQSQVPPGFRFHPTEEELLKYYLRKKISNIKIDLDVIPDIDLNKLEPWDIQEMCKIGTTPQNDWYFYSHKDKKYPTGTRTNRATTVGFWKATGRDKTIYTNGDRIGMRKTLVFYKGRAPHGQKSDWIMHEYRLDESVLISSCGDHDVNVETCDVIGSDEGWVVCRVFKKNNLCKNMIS

The next experiment deals with T6, GST-NTL8 NAC domain (UniProt Q9XIN7).
T6 sequence: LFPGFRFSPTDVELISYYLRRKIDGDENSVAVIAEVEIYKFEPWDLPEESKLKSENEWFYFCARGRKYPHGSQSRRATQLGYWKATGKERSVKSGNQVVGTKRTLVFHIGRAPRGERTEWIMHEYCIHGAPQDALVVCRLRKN

In the next experiment the target is T7, GST-SND1(1-203) (UniProt Q9LPI7).
T7 sequence: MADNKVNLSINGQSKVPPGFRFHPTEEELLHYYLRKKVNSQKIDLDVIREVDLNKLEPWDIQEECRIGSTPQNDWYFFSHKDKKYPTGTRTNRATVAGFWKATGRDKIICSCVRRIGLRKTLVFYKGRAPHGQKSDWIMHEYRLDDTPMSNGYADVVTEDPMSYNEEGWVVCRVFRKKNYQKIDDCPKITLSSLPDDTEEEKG

Experiment [1] has as its target T8, GST-VOZ2 (Arabidopsis thaliana) (UniProt Q9SLB9).
T8 sequence: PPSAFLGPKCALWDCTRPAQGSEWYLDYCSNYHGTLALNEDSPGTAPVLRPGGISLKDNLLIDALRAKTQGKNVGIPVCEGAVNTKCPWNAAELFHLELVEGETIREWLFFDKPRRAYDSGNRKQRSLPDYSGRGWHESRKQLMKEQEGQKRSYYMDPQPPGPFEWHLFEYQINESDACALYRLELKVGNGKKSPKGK

In experiment [2] the target is T9, GST-ANAC092(1-285) full length (UniProt Q9FKA0).
T9 sequence: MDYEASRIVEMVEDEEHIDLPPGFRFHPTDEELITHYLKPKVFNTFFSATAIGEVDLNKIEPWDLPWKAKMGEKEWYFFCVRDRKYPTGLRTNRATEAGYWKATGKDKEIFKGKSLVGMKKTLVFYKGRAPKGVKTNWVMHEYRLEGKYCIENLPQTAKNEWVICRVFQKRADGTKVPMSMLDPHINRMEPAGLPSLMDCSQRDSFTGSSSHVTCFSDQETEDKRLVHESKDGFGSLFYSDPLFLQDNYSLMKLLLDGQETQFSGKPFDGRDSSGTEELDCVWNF

The target of another experiment is T10, GST-NAP(1-166) (UniProt O49255).
T10 sequence: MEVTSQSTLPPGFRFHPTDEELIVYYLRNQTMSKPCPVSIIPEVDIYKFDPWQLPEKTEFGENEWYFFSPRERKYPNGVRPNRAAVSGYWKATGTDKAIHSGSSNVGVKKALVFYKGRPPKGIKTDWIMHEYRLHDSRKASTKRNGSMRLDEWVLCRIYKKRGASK

For a further experiment, the target named is GST-WRKY1(266-371) (UniProt Q9SI37).
Another experiment deals with T11, GST-VND3 NAC domain (UniProt Q9FH59).
T11 sequence: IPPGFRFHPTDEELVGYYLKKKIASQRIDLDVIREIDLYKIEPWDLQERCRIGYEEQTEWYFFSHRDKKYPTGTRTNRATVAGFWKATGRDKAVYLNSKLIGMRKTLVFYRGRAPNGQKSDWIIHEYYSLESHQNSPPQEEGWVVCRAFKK

Another experiment concerns the target T12, GST-VND7 NAC domain (UniProt Q9C8W9).
T12 sequence: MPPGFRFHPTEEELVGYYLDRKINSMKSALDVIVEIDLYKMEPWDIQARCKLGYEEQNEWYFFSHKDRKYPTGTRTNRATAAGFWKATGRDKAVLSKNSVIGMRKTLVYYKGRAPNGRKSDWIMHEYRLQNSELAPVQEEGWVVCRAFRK

In the case of ACGGCAGT, the binding signal in the experiment with GST-ANAC092(1-176) is 0.207 E-score; in the experiment with GST-NTL6(1-168), 0.00944 E-score; in the experiment with GST-ANAC019 NAC domain, 0.418 E-score; with GST-ANAC055(1-171) it was 0.311 E-score; with GST-ATAF1 NAC domain, 0.212 E-score; with GST-NST2(1-184), 0.138 E-score. The binding signal with GST-NTL8 NAC domain is -0.0802 E-score; with GST-SND1(1-203), 0.0425 E-score; in experiment [1], -0.00946 E-score.
Consider AGACGTGA, for which the binding signal with GST-NTL6(1-168) is 0.0777 E-score; with GST-ANAC019 NAC domain, 0.425 E-score; in [2], 0.272 E-score; with GST-NAP(1-166) it was 0.223 E-score; with GST-NST2(1-184) it was 0.157 E-score; with GST-NTL8 NAC domain, 0.116 E-score. The binding signal in the experiment with GST-SND1(1-203) is 0.25 E-score; in [1] it was 0.0434 E-score.
For the sequence GTTGGTCA, the binding signal is 0.0266 E-score in the experiment with GST-ANAC092(1-176); -0.0165 E-score with GST-NTL6(1-168); 0.0392 E-score with GST-ANAC019 NAC domain; 0.182 E-score in the experiment with GST-ANAC055(1-171); 0.0411 E-score in [2]; 0.117 E-score in the experiment with GST-NAP(1-166). The binding signal with GST-NST2(1-184) was -0.0594 E-score; with GST-NTL8 NAC domain, 0.0397 E-score; with GST-SND1(1-203), -0.0996 E-score; in experiment [1] it was 0.0524 E-score.
For the sequence AAGTCAAA, the binding signal was 0.135 E-score with GST-NTL6(1-168); 0.084 E-score with GST-ANAC019 NAC domain; 0.0354 E-score with GST-ANAC055(1-171); 0.16 E-score in the experiment with GST-ATAF1 NAC domain; -0.0494 E-score in [2]; -0.00307 E-score in the experiment with GST-NTL8 NAC domain. Besides, the binding signal stood at 0.0314 E-score in the experiment with GST-SND1(1-203) and 0.103 E-score in experiment [1].
On to ATTACTTC, for which the binding signal with GST-ANAC092(1-176) is 0.31 E-score; with GST-NAP(1-166), -0.0211 E-score; with GST-SND1(1-203) it was 0.347 E-score; in experiment [1], 0.0617 E-score.
For ACGAGAAA, the binding signal came out at 0.184 E-score with GST-ATAF1 NAC domain; 0.206 E-score with GST-NAP(1-166); 0.151 E-score with GST-SND1(1-203); 0.0526 E-score in [1]; 0.0488 E-score with GST-WRKY1(266-371).
With CTTTTGAC, the binding signal was 0.158 E-score with GST-ANAC092(1-176); 0.014 E-score with GST-ANAC019 NAC domain; 0.0483 E-score in the experiment with GST-NAP(1-166); 0.00386 E-score with GST-NST2(1-184); -0.0727 E-score with GST-NTL8 NAC domain; 0.0461 E-score in the experiment with GST-SND1(1-203). The sequence further displayed a binding signal in experiment [1] of 0.109 E-score.
Turning to AGTCTACG, the binding signal with GST-ANAC092(1-176) is -0.0417 E-score; in the experiment with GST-NTL6(1-168) it was -0.16 E-score; with GST-ANAC019 NAC domain, 0.0568 E-score; in the experiment with GST-ANAC055(1-171), -0.11 E-score; in the experiment with GST-ATAF1 NAC domain it was 0.0473 E-score; in [2] it was 0.0408 E-score. Also, the binding signal with GST-NAP(1-166) is -0.0347 E-score; with GST-NST2(1-184) it was 0.0274 E-score; in the experiment with GST-NTL8 NAC domain, -0.113 E-score; with GST-VND3 NAC domain it was -0.11 E-score; with GST-VND7 NAC domain, -0.0261 E-score; in [1], -0.106 E-score. The sequence also came in with a binding signal with GST-WRKY1(266-371) of 0.401 E-score.
